Experimental data from PubChem BioAssay AID493208 (National Center for Advancing Translational Sciences (NCATS), 2011).
In all, about 44,000 compounds went through this assay and about 340 (0.77%) were called active. About 5% were inconclusive and are not listed. Calls come from the whole dose curve; as a rule, active = well fitted inhibition curve with a large enough effect; inconclusive = small, poorly fitted or top-dose-only effect; inactive = flat fitted curve, though single readings scatter. This is one part of the list.

test: Acumen qHTS Assay for Inhibitors of the mTORC1 Signaling Pathway in MEF (Tsc2-/-, p53-/-) Cells: Sytravon; conditions: phospho-rpS6 immunofluorescence/PI, 24 h; series mostly up to 38.3 µM; activity change, negative = inhibition: at the top concentration;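 note: plate controls were DMSO for no effect and rapamycin for full effect; nearly all actives have a fitted effect of over 50% in size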
How it was run: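 Cell-based qHTS: Tsc2-/- p53-/- MEF, 24 h cpd, 37 °C; fix/perm, anti-phospho-S6 Alexa-488 + PI; Acumen 488 nm scan; pS6/PI ratio, % positive cells; rapamycin 7.5 nM = inhibition ref; PI count = viability.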

Activity change, negative = inhibition, inactive:
Cc1ccccc1NC(=O)c1sc2nc(-c3cc4ccccc4oc3=O)[nH]c(=O)c2c1C -22.9%, CCCn1cc(S(=O)(=O)c2ccc(C)c(C)c2)c(=O)c2cc(F)c(N3CCCCC3)cc21 -1.26%, CC(C)NC(=O)c1ccc(CSc2nc3ccncc3n2Cc2cccc(F)c2)cc1 -9.75%, CC(=O)Nc1cccc(NC(=O)CSc2nccn2Cc2ccccc2)c1 -27%, Cc1ccccc1-c1noc(-c2ccc(NCc3cccnc3)c([N+](=O)[O-])c2)n1 0.122%, CC1=C(c2ccc(C(C)C)cc2)S(=O)(=O)N=C1N1CCC(C(=O)NCc2ccc(C)o2)CC1 -4.46%, O=C(NC1CCCCC1)c1ccc(CSc2nc3cccnc3n2Cc2ccccc2)cc1 -8.29%, CC(=O)c1cccc(NC(=O)Cn2ccn3nc(-c4ccccc4)cc3c2=O)c1 0%, Cc1cc(Nc2cc(Cl)ccc2C)n2nc(-c3ccccc3)nc2n1 -1.89%, CCOC(=O)c1c(N)n(-c2ccc(OCC)cc2)c2nc3ccccc3nc12 1.13%, Cc1c(CC(=O)NCCc2ccccc2)c(=O)oc2c(C)c3occ(C(C)(C)C)c3cc12 2.81%, O=C(COc1ccccc1-c1nc(-c2ccccc2)no1)Nc1ccc([N+](=O)[O-])cc1 -0.0775%, Cc1ccc(CN(Cc2cccn2-c2nnc(N3CCCC3=O)s2)C(=O)Nc2ccccc2Cl)cc1 -5.51%, Cc1nc2c(-c3ccc(F)cc3)c(C)nn2c(C)c1CCC(=O)NCc1ccc(F)cc1 -11.3%, COc1ccc(OCCCn2c(C3CC(=O)N(c4ccc(F)cc4)C3)nc3ccccc32)cc1 (configuration not stated) -4.41%, COc1ccc(NC(=O)c2nnn(-c3ccc(C(C)C)cc3)c2C)c(OC)c1 0.741%, CC(C)CCNC(=O)c1cc(-c2cccnc2)nc2ccc(S(=O)(=O)N3CCC(C)CC3)cc12 -1.34%, O=C(CSc1nc2c([nH]c3ccccc32)c(=O)n1-c1ccccc1)N1CCCCC1 -0.48%, COc1ccc(OC)c(-c2noc(N3CCN(c4cccc(C(F)(F)F)c4)CC3)n2)c1 0.251%, CCOc1ccc(-c2cc(C(=O)NCCc3ccc(C)cc3)c3ccccc3n2)cc1 5.27%, Cc1cccc(-n2c3nc(=O)[nH]c(=O)c-3cc3ccc(Cl)cc32)c1C 1.27%, CCOc1cccc2sc(N3CCN(C(=O)c4ccco4)CC3)nc12 1.44%, Cn1c(CN2CCOCC2)nc2cc(NC(=O)c3ccccc3[N+](=O)[O-])ccc21 -9.36%, COc1cc(OC)c(NC(=O)c2ccc(-n3cnc4cccnc43)cc2)cc1Cl -1.42%, CCOC(=O)CC(NC(=O)Cn1nnc(-c2ccc(Cl)cc2)n1)c1ccc(OC)cc1 (configuration not stated) -15.7%, O=C(NCCCN1CCN(c2ccc(F)cc2)CC1)Nc1ccccc1Cl -8.99%, COc1cc(NC(=O)CN2CCCN(Cc3cccc(F)c3)S2(=O)=O)cc(OC)c1 1.7%, CCOC(=O)c1c(C)oc2nc(C)nc(NCCc3ccc(C)cc3)c12 2.98%, CCCc1cc(N2CCN(c3ccccc3F)CC2)n2cnnc2n1 -17%, Cc1ccc(CN2C(=O)c3ccccc3Sc3ccc(C(=O)N4CCOCC4)cc32)cc1 -0.322%, Cc1cccc(C(=O)Nc2ccc(N3CC=C(c4ccccc4C)CC3)c(C(=O)O)c2)c1 -4.81%, Cc1ccc(NC(=O)c2oc3ccc(S(=O)(=O)N(C)C4CCCCC4)cc3c2C)c(C)c1 -9.78%, COc1ccc(-c2nc(C)c(CCNC(=O)c3ccc(C(F)(F)F)cc3)s2)cc1OC -1.78%, CCOc1ccc(NC(=O)CSc2oc(-c3ccco3)nc2S(=O)(=O)c2ccccc2)cc1 10.3%, CCCNC(=O)c1cc2n(n1)CCCN(Cc1ccc(C)cc1)C2=O -27.9%, O=S(=O)(c1ccccc1)c1nc(-c2ccc(F)cc2)oc1NCc1ccccc1 -0.656%, O=C(COc1ccccc1F)Nc1ccc2nc(SCC(=O)N3CCOCC3)sc2c1 -1.58%, COc1ccc(CNC(=O)CCCc2nnc3n(C(C)C)c(=O)c4sccc4n23)cc1 -2.28%, Cc1ccc(S(=O)(=O)Nc2cc(Cl)c3oc4c(c3c2)CCCC4)cc1 17.8%, O=C(NCCc1ccccc1)c1ccc2c(c1)nc1n2CCOC1 -19.1%, CCOc1ccc(CNC(=O)CSc2c3c(nc4cc(Cl)ccc24)CCCC3)cc1 -12.1%, Cc1c(-c2nsc(NC(=O)c3cccs3)n2)nnn1-c1ccc(F)cc1 4.18%, CCOC(=O)c1cccc(NC(=O)CSc2ncc3c(n2)-c2ccc(Cl)cc2N(Cc2ccccc2)S3(=O)=O)c1 7.67%, COc1ccccc1CNC(=O)CCS(=O)(=O)c1ccc2c(c1)oc(=O)n2C -3.04%, CCOC(=O)c1oc2c(c1C)-c1nn(Cc3cccc(Cl)c3)cc1CC2 -1.13%, Cc1c(C)n(Cc2ccccc2)c2ccc(C(=O)N3CCN(c4ccccc4)CC3)cc12 0%, Cc1ccc(OCC(=O)NCC(=O)OCc2cc(=O)n3nc(C(C)C)sc3n2)cc1 -8.39%, CC(C)Oc1ccc(C(=O)N(Cc2ccc(N(C)C)cc2)Cc2ccco2)cc1 3.02%, CCN(C(=O)Cn1c(=O)oc2cc(S(=O)(=O)N3CCCCCC3)ccc21)c1cccc(C)c1 1.22%, O=C(CCS(=O)(=O)c1ccc(Br)s1)Nc1cc(C(F)(F)F)cc(C(F)(F)F)c1 -28.6%, Cc1cccc(OC(=O)c2snnc2C)c1 1.32%, Cc1cccc(C)c1Nc1c(-c2ccccn2)nc2ccc(Cl)cn12 5.75%, COc1ccc(-c2nc(CSCC(=O)N3CCN(c4ccccc4F)CC3)c(C)o2)cc1 -8.14%, O=C(NCc1ccccc1)NC1COc2ccccc2C1 (configuration not stated) 0%, Cn1cc(S(=O)(=O)N2CCCCCC2)cc1C(=O)NCc1ccc(F)cc1 -9.44%, CCOc1ccccc1NC(=O)CSc1ncc2c(n1)-c1ccccc1N(CC)S2(=O)=O 5.64%, COc1ccc(CNCc2ccc(C(=O)O)s2)cc1 0.443%, Cc1cccc(NC(=O)C(=O)NCCCN2CCOCC2)c1 6.05%, CCOc1ccc(NC(=O)c2sc(-n3nc(C)c(CCC(C)C)c3C)nc2C)cc1 -8.76%, COc1ccc(NC(=O)c2nc(SCc3ccc(F)cc3)ncc2Cl)cc1 1.29%, CCOc1ccccc1CNC(=O)c1ccc2nc(N3CCC(C)CC3)sc2c1 0.0588%, Cc1ccccc1Nc1c(-c2ccc(N3CCOCC3)cc2)nc2cccc(C)n12 1.34%
